# Source: the supplement of paper PMC3334620
# In all, about 33,000 sequences were measured (“E-score (-0.5 to 0.5)”: median about -0.016, highest 2% from about 0.31 on). This is one part of the list.
# Biological target: Cst6 (UniProt P40535)
# Assay: PBM E-score (8-mer binding enrichment) (E-score (-0.5 to 0.5)); higher = stronger / more preferred TF binding; most listed sequences are background and not binding sites
# Details: protein concentration: 200 nM; construct: GST-DNA-binding domain
# In short: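 Bound GST-tagged yeast transcription factors, applied at about 100-200 nM to double-stranded universal all-10-mer Agilent arrays, were detected with fluorescent anti-GST. Scans were normalised with masliner. A modified Wilcoxon-Mann-Whitney statistic, the E-score, was assigned to each ungapped eight-base word pooled with its reverse complement by the Universal PBM Analysis Suite.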
row,Sequence,PBM E-score
1,CCCTAGGA,-0.295
2,AGGTACAT,0.00924
3,TTAGATAA,0.129
4,CGTGCATA,0.12
5,GACATCGC,-0.0367
6,ATAAGGTG,0.237
7,ATGGTCCA,-0.234
8,TCGGACAA,0.0914
9,GAATTATC,0.253
10,CACAAAAC,0.116
11,CCCCATCC,-0.192
12,ATGTCCGC,-0.093
13,CTGTCTGA,-0.0872
14,TCTGTCAA,0.111
15,GCCAAACC,-0.267
16,GTGAGACA,-0.00295
17,ATCCTATC,-0.0914
18,ATAGGAAA,0.186
19,AGTCCTTC,-0.416
20,ATAATTTC,0.212
21,GCTCCTCA,-0.202
22,AGTCAGTA,0.0551
23,TATACTCA,0.142
24,CCGAAGAA,-0.024

row,Sequence,PBM E-score
1,ACGAACCC,-0.163
2,AGTCAGTC,-0.0902
3,GAGCTAAC,0.02
4,AATTCCGG,-0.139
5,ACCCCAAT,-0.088
6,GCCGGCCA,-0.126
7,ACTCAACC,0.0398
8,CGATGCCG,0.0247
9,CCCATCCA,-0.135
10,CAAAGCAA,0.128
11,CGAGCGGC,0.0772
12,AACTTCAA,0.127
13,ATAAAACC,0.037
14,CTACGCGA,-0.112
15,ATAAGAGA,0.217
16,GTGAAATA,0.0961
17,ATACATAG,0.108
18,CATGACAG,0.118
19,AACCAATC,0.0677
20,AAGCGAGC,-0.164
21,TGGACCCA,-0.163
22,GGACACCC,-0.391
23,GCAAGCGC,-0.112
24,AAATGAGT,0.183

row,Sequence,PBM E-score
1,ACGAAAGT,0.218
2,GGAAAGTA,0.0506
3,CCCGTCAG,-0.282
4,AACTGTGA,0.147
5,ACCCCTCA,-0.295
6,TCACGGGA,0.0436
7,AGATACAT,0.168
8,TGACAAAA,0.337
9,TGCGCCCA,-0.17
10,GGACAACA,-0.0829
11,ACCTTCGA,-0.0936
12,ACACGACT,-0.0344
13,CATCGCAA,-0.0967
14,GAACCTGA,-0.0356
15,CAGCTTAA,0.03
16,ACCGTTGC,-0.2
17,CGAGCTAC,-0.125
18,TACGGTCA,0.215
19,AGGTTGCG,0.0119
20,ATGCGATC,0.0491
21,CATTAATC,0.128
22,GGAGGTCA,-0.151
23,AGGACCAT,-0.216
24,GATCATAA,0.196

row,Sequence,PBM E-score
1,AAACATAC,0.0968
2,AGTCCTAC,-0.131
3,TCGCGGCA,-0.0207
4,CCTACGGC,0.143
5,CACGACTG,-0.279
6,AATTATAA,0.232
7,TACCTTGA,0.0359
8,ATACCGAT,-0.154
9,TAAGAAGA,0.181
10,AAAGATGC,0.0117
11,ACCATACT,-0.0819
12,CGACTCCC,-0.227
13,GCGAACCA,-0.0341
14,CCACGCAG,-0.101
15,ATGAAAGG,0.0131
16,GAGGCGCA,0.00503
17,AAGTGCGC,-0.0105
18,GTATAAAC,0.138
19,CATAAGAA,0.342
20,GGAGCCTA,-0.15
21,CTAATAGC,0.0253
22,AAATAGGC,-0.00092
